Results from patent US20250361279A1 (Hoffmann-La Roche, published 2025).
Changes are numbered by the printed parent chain. In names and notes the source's numbering stands. Like-named read-outs stand apart in the source and are kept apart here.

T1: IL-7 receptor (IL-7R alpha chain and common gamma chain) on human T cells (human, UniProt P16871 21-459; P31785 23-369)
T1 sequence (looked up) 1: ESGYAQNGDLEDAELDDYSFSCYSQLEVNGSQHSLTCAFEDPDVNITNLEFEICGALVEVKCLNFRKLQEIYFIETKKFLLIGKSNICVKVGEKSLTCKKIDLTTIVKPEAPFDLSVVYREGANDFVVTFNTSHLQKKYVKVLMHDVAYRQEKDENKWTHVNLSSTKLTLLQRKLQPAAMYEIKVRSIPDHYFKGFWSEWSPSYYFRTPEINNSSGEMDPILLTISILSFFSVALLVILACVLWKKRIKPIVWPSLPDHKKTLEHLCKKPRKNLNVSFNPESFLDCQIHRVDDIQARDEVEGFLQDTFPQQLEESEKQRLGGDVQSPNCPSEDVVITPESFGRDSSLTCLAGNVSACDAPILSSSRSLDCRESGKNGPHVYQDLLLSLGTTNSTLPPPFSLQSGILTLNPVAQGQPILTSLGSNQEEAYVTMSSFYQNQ
T1 sequence (looked up) 2: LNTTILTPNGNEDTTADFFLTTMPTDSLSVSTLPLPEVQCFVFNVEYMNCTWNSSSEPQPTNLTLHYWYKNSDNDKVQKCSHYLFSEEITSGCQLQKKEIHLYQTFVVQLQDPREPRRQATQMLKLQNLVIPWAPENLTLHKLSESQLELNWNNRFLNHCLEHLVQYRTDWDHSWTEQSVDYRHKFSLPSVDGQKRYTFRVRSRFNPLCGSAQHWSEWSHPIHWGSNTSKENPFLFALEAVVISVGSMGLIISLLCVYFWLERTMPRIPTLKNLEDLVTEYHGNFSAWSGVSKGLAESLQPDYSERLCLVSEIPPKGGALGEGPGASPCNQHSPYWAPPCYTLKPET

B1: P1AH6021 (new PD1-IL7v, fully glycosylated, PD1-ILv2.6; IL7 E13K, G85E; (G2SG2)3 linker) (other)
light: DIVMTQSPDSLAVSLGERATINCKASESVDTSDNSFIHWYQQKPGQSPKLLIYRSSTLESGVPDRFSGSGSGTDFTLTISSLQAEDVAVYYCQQNYDVPWTFGQGTKVEIKRTVAAPSVFIFPPSDEQLKSGTASVVCLLNNFYPREAKVQWKVDNALQSGNSQESVTEQDSKDSTYSLSSTLTLSKADYEKHKVYACEVTHQGLSSPVTKSFNRGEC
heavy 1: EVQLLESGGGLVQPGGSLRLSCAASGFSFSSYTMSWVRQAPGKGLEWVATISGGGRDIYYPDSVKGRFTISRDNSKNTLYLQMNSLRAEDTAVYYCVLLTGRVYFALDSWGQGTLVTVSSASTKGPSVFPLAPSSKSTSGGTAALGCLVKDYFPEPVTVSWNSGALTSGVHTFPAVLQSSGLYSLSSVVTVPSSSLGTQTYICNVNHKPSNTKVDKKVEPKSCDKTHTCPPCPAPEAAGGPSVFLFPPKPKDTLMISRTPEVTCVVVDVSHEDPEVKFNWYVDGVEVHNAKTKPREEQYNSTYRVVSVLTVLHQDWLNGKEYKCKVSNKALGAPIEKTISKAKGQPREPQVCTLPPSRDELTKNQVSLSCAVKGFYPSDIAVEWESNGQPENNYKTTPPVLDSDGSFFLVSKLTVDKSRWQQGNVFSCSVMHEALHNHYTQKSLSLSPG
heavy 2: EVQLLESGGGLVQPGGSLRLSCAASGFSFSSYTMSWVRQAPGKGLEWVATISGGGRDIYYPDSVKGRFTISRDNSKNTLYLQMNSLRAEDTAVYYCVLLTGRVYFALDSWGQGTLVTVSSASTKGPSVFPLAPSSKSTSGGTAALGCLVKDYFPEPVTVSWNSGALTSGVHTFPAVLQSSGLYSLSSVVTVPSSSLGTQTYICNVNHKPSNTKVDKKV[sequence of human IgG1 Fc with changes omitted]GGSGGGGSGGGGSGGDCDIEGKDGKQYKSVLMVSIDQLLDSMKEIGSNCLNNEFNFFKRHICDANKEGMFLFRAARKLRQFLKMNSTGDFDLHLLKVSEETTILLNCTGQVKGRKPAALGEAQPTKSLEENKSLKEQKKLNDLCFLKRLLQEIKTCWNKILMGTKEH
B2: P1AH6010 (new PD1-IL7v, fully glycosylated; IL7 L77K, G85K; (G2SG2)3 linker) (other)
light: B1 light
heavy 1: B1 heavy 1
heavy 2: EVQLLESGGGLVQPGGSLRLSCAASGFSFSSYTMSWVRQAPGKGLEWVATISGGGRDIYYPDSVKGRFTISRDNSKNTLYLQMNSLRAEDTAVYYCVLLTGRVYFALDSWGQGTLVTVSSASTKGPSVFPLAPSSKSTSGGTAALGCLVKDYFPEPVTVSWNSGALTSGVHTFPAVLQSSGLYSLSSVVTVPSSSLGTQTYICNVNHKPSNTKVDKKV[sequence of human IgG1 Fc with changes omitted]GGSGGGGSGGGGSGGDCDIEGKDGKQYESVLMVSIDQLLDSMKEIGSNCLNNEFNFFKRHICDANKEGMFLFRAARKLRQFLKMNSTGDFDKHLLKVSEKTTILLNCTGQVKGRKPAALGEAQPTKSLEENKSLKEQKKLNDLCFLKRLLQEIKTCWNKILMGTKEH
B3: P1AH6007 (new PD1-IL7v, fully glycosylated; IL7 V15K, Q136K; (G2SG2)3 linker) (other)
light: B1 light
heavy 1: B1 heavy 1
heavy 2: EVQLLESGGGLVQPGGSLRLSCAASGFSFSSYTMSWVRQAPGKGLEWVATISGGGRDIYYPDSVKGRFTISRDNSKNTLYLQMNSLRAEDTAVYYCVLLTGRVYFALDSWGQGTLVTVSSASTKGPSVFPLAPSSKSTSGGTAALGCLVKDYFPEPVTVSWNSGALTSGVHTFPAVLQSSGLYSLSSVVTVPSSSLGTQTYICNVNHKPSNTKVDKKV[sequence of human IgG1 Fc with changes omitted]GGSGGGGSGGGGSGGDCDIEGKDGKQYESKLMVSIDQLLDSMKEIGSNCLNNEFNFFKRHICDANKEGMFLFRAARKLRQFLKMNSTGDFDLHLLKVSEGTTILLNCTGQVKGRKPAALGEAQPTKSLEENKSLKEQKKLNDLCFLKRLLKEIKTCWNKILMGTKEH
B4: P1AJ0773 (PD1-IL7var18_21, fully glycosylated; PD1 binder FV020519; IL7 K81E, G85E; (G2SG2)3 linker) (other)
light: B1 light with S55A
heavy 1: B1 heavy 1 with A49S, T50A
heavy 2: EVQLLESGGGLVQPGGSLRLSCAASGFSFSSYTMSWVRQAPGKGLEWVSAISGGGRDIYYPDSVKGRFTISRDNSKNTLYLQMNSLRAEDTAVYYCVLLTGRVYFALDSWGQGTLVTVSSASTKGPSVFPLAPSSKSTSGGTAALGCLVKDYFPEPVTVSWNSGALTSGVHTFPAVLQSSGLYSLSSVVTVPSSSLGTQTYICNVNHKPSNTKVDKKV[sequence of human IgG1 Fc with changes omitted]GGSGGGGSGGGGSGGDCDIEGKDGKQYESVLMVSIDQLLDSMKEIGSNCLNNEFNFFKRHICDANKEGMFLFRAARKLRQFLKMNSTGDFDLHLLEVSEETTILLNCTGQVKGRKPAALGEAQPTKSLEENKSLKEQKKLNDLCFLKRLLQEIKTCWNKILMGTKEH
B5: P1AH6005 (new PD1-IL7v, fully glycosylated, PD1-IL7v2.2; IL7 D74K, G85K; (G2SG2)3 linker) (other)
light: B1 light
heavy 1: B1 heavy 1
heavy 2: EVQLLESGGGLVQPGGSLRLSCAASGFSFSSYTMSWVRQAPGKGLEWVATISGGGRDIYYPDSVKGRFTISRDNSKNTLYLQMNSLRAEDTAVYYCVLLTGRVYFALDSWGQGTLVTVSSASTKGPSVFPLAPSSKSTSGGTAALGCLVKDYFPEPVTVSWNSGALTSGVHTFPAVLQSSGLYSLSSVVTVPSSSLGTQTYICNVNHKPSNTKVDKKV[sequence of human IgG1 Fc with changes omitted]GGSGGGGSGGGGSGGDCDIEGKDGKQYESVLMVSIDQLLDSMKEIGSNCLNNEFNFFKRHICDANKEGMFLFRAARKLRQFLKMNSTGKFDLHLLKVSEKTTILLNCTGQVKGRKPAALGEAQPTKSLEENKSLKEQKKLNDLCFLKRLLQEIKTCWNKILMGTKEH
B6: P1AH6008 (new PD1-IL7v, fully glycosylated; IL7 V18K, Q136K; (G2SG2)3 linker) (other)
light: B1 light
heavy 1: B1 heavy 1
heavy 2: EVQLLESGGGLVQPGGSLRLSCAASGFSFSSYTMSWVRQAPGKGLEWVATISGGGRDIYYPDSVKGRFTISRDNSKNTLYLQMNSLRAEDTAVYYCVLLTGRVYFALDSWGQGTLVTVSSASTKGPSVFPLAPSSKSTSGGTAALGCLVKDYFPEPVTVSWNSGALTSGVHTFPAVLQSSGLYSLSSVVTVPSSSLGTQTYICNVNHKPSNTKVDKKV[sequence of human IgG1 Fc with changes omitted]GGSGGGGSGGGGSGGDCDIEGKDGKQYESVLMKSIDQLLDSMKEIGSNCLNNEFNFFKRHICDANKEGMFLFRAARKLRQFLKMNSTGDFDLHLLKVSEGTTILLNCTGQVKGRKPAALGEAQPTKSLEENKSLKEQKKLNDLCFLKRLLKEIKTCWNKILMGTKEH
B7: P1AH6006 (new PD1-IL7v, fully glycosylated; IL7 K81A, Q136K; (G2SG2)3 linker) (other)
light: B1 light
heavy 1: B1 heavy 1
heavy 2: EVQLLESGGGLVQPGGSLRLSCAASGFSFSSYTMSWVRQAPGKGLEWVATISGGGRDIYYPDSVKGRFTISRDNSKNTLYLQMNSLRAEDTAVYYCVLLTGRVYFALDSWGQGTLVTVSSASTKGPSVFPLAPSSKSTSGGTAALGCLVKDYFPEPVTVSWNSGALTSGVHTFPAVLQSSGLYSLSSVVTVPSSSLGTQTYICNVNHKPSNTKVDKKV[sequence of human IgG1 Fc with changes omitted]GGSGGGGSGGGGSGGDCDIEGKDGKQYESVLMVSIDQLLDSMKEIGSNCLNNEFNFFKRHICDANKEGMFLFRAARKLRQFLKMNSTGDFDLHLLAVSEGTTILLNCTGQVKGRKPAALGEAQPTKSLEENKSLKEQKKLNDLCFLKRLLKEIKTCWNKILMGTKEH
B8: P1AH6009 (new PD1-IL7v, fully glycosylated; IL7 L77K, Q136; (G2SG2)3 linker) (other)
light: B1 light
heavy 1: B1 heavy 1
heavy 2: EVQLLESGGGLVQPGGSLRLSCAASGFSFSSYTMSWVRQAPGKGLEWVATISGGGRDIYYPDSVKGRFTISRDNSKNTLYLQMNSLRAEDTAVYYCVLLTGRVYFALDSWGQGTLVTVSSASTKGPSVFPLAPSSKSTSGGTAALGCLVKDYFPEPVTVSWNSGALTSGVHTFPAVLQSSGLYSLSSVVTVPSSSLGTQTYICNVNHKPSNTKVDKKV[sequence of human IgG1 Fc with changes omitted]GGSGGGGSGGGGSGGDCDIEGKDGKQYESVLMVSIDQLLDSMKEIGSNCLNNEFNFFKRHICDANKEGMFLFRAARKLRQFLKMNSTGDFDKHLLKVSEGTTILLNCTGQVKGRKPAALGEAQPTKSLEENKSLKEQKKLNDLCFLKRLLKEIKTCWNKILMGTKEH

Key:
Experiment in all cases: cell-based or functional assay
[1] = biological target: T1, IL-7 receptor (IL-7R alpha chain and …)
[2] = biological target: T2, human PD-1 on activated CD4 T cells (human, UniProt Q15116 25-288)
[3] = biological target: T1, IL-7 receptor (IL-7R alpha chain and …); remark: listed apart in the source
[4] = biological target: T1, IL-7 receptor (IL-7R alpha chain and …); remark: listed apart in the source
[5] = biological target: T2, human PD-1 on activated CD4 T cells; remark: listed apart in the source
[6] = biological target: T1, IL-7 receptor (IL-7R alpha chain and …); remark: listed apart in the source
[7] = biological target: T2, human PD-1 on activated CD4 T cells; remark: listed apart in the source
[8] = biological target: T1, IL-7 receptor (IL-7R alpha chain and …); remark: listed apart in the source
[9] = biological target: T2, human PD-1 on activated CD4 T cells; remark: listed apart in the source

Row | Binder | Percentage of rescued Granzyme B production by Tconv (Treg suppression assay, 6 nM) [3] [%] | Percentage of suppressed Granzyme B production by Tconv (Treg suppression assay, 6 nM) [3] [%] | Potency reduction to PD1-IL7wt: EC50 (PD1+)/EC50 (PD1-IL7wt) [6] [fold] | STAT-5P AUC, PD1+ CD4 T cells [6] | STAT-5P AUC, PD1-blocked CD4 T cells [6] | Delta AUC (PD1+ vs PD1bl.) [7] | Cis-delivery: fold increase in EC50, EC50 [with PD1bl]/EC50 [no PD1bl] [7] [fold] | also measured
1 | B1 | 94.7 | 5.3 | – | – | – | – | – | Potency reduction to PD1-IL7wt: EC50 (PD1+)/EC50 (PD1-IL7wt) [1]: 26.5 fold; STAT-5P AUC, PD1+ CD4 T cells [1]: 58.3; STAT-5P AUC, PD1-blocked CD4 T cells [1]: 17.4; Cis-delivery: fold increase in EC50, EC50 [with PD1bl]/EC50 [no PD1bl] [2]: 52.5 fold; Delta AUC (PD1+ vs PD1bl.) [2]: 41; Potency reduction to PD1-IL7wt: EC50 (PD1+)/EC50 (PD1-IL7wt) [4]: 10.8 fold; STAT-5P AUC, PD1+ CD4 T cells [4]: 74.7; STAT-5P AUC, PD1-blocked CD4 T cells [4]: 42.4; Cis-delivery: fold increase in EC50, EC50 [with PD1bl]/EC50 [no PD1bl] [5]: 38 fold; Delta AUC (PD1+ vs PD1bl.) [5]: 32.4
2 | B2 | – | – | 92.7 | 7.1 | 7.8 | -0.7 | – | –
3 | B3 | 44.6 | 55.4 | 27.4 | 56.1 | 21.3 | 34.9 | 23.7 | –
4 | B4 | – | – | – | – | – | – | – | Potency reduction to PD1-IL7wt: EC50 (PD1+)/EC50 (PD1-IL7wt) [8]: 71.8 fold; STAT-5P AUC, PD1+ CD4 T cells [8]: 20; STAT-5P AUC, PD1-blocked CD4 T cells [8]: 2.7; Cis-delivery: fold increase in EC50, EC50 [with PD1bl]/EC50 [no PD1bl] [9]: 4760 fold; Delta AUC (PD1+ vs PD1bl.) [9]: 17.3
5 | B5 | 42.1 | 57.9 | 119 | 26.5 | 6.9 | 19.5 | 31.4 | –
6 | B6 | – | – | 14.8 | 82.5 | 43.3 | 39.2 | 8.7 | –
7 | B7 | – | – | 6.5 | 108 | 67.4 | 40.4 | 5.2 | –
8 | B8 | – | – | 12.7 | 73 | 38.9 | 34 | 6.7 | –
